Test results from the supplement of paper PMC3334620.
The full ranking holds about 33,000 sequences; the median of “E-score (-0.5 to 0.5)” is about -0.017, and the highest 2% start at about 0.3. This is one part of the list.

biological target: T1, Sut1 (UniProt P53032); assay: PBM E-score (8-mer binding enrichment) (E-score (-0.5 to 0.5)); higher = stronger / more preferred TF binding; most listed sequences are background and not binding sites; settings: protein concentration: 200 nM; construct: GST-full length
T1 sequence: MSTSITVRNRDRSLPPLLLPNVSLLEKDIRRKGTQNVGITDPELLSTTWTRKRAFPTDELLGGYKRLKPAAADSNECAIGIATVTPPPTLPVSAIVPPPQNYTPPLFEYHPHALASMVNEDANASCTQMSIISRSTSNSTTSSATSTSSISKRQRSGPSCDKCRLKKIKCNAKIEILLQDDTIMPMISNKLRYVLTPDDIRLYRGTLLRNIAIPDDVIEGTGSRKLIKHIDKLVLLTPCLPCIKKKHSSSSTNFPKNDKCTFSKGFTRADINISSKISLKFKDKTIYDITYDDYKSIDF
In short: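 Yeast transcription factors carrying a GST tag, as full-length proteins or DNA-binding domains, were produced by PURExpress in vitro transcription/translation. About 100-200 nM protein was applied to universal all-10-mer Agilent arrays, double-stranded by primer extension on fresh or once-stripped slides. Bound protein was detected with fluorescent anti-GST, and scans were normalised with masliner. The Universal PBM Analysis Suite gave each ungapped eight-base word, pooled with its reverse complement, an E-score, a modified Wilcoxon-Mann-Whitney statistic.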

Row | Sequence | PBM E-score
1 | ACCTTGAG | -0.0614
2 | CAGAATGG | 0.0413
3 | ACCAGGGT | -0.26
4 | GAACAGTA | 0.0572
5 | GGGTAAAC | -0.0044
6 | GGCACTTA | -0.225
7 | AAATAGGG | 0.0139
8 | AGTCTTAG | -0.23
9 | CAGTTAGG | 0.0319
10 | GGTACCGA | -0.141
11 | ATTGTACC | -0.029
12 | CTCACGGC | -0.172
13 | CACAGCTG | -0.387
14 | TACGCCGA | -0.0278
15 | CGTTTAAG | 0.0533
16 | AAGCGGGG | -0.152
17 | ACGCAGGG | -0.115
18 | AACCATCG | 0.128
19 | AGCTCAGC | -0.176
20 | CTCGGTGC | -0.02
21 | GAAAAACC | 0.194
22 | AAATTTAC | 0.204
23 | CGCACTGC | -0.205
24 | GCGTCGCC | -0.0115
25 | CAATTGCC | -0.0683

Row | Sequence | PBM E-score
26 | CACCGCCA | -0.0127
27 | CTCCAACC | 0.0704
28 | ATGCCCAC | -0.103
29 | CGGTTCTA | 0.0118
30 | GTGATAAC | 0.13
31 | ACAAATCA | 0.171
32 | AGAGATGG | -0.153
33 | CCCCAGGG | -0.407
34 | TAGAGAGA | -0.0117
35 | GGATCACA | -0.0846
36 | GAACGATA | 0.0437
37 | ACATGAGC | -0.11
38 | AAGCCCGG | 0.269
39 | AGATACCC | 0.0169
40 | CGCTCATA | -0.104
41 | GACGAATC | -0.0153
42 | AGTAACAG | 0.113
43 | AAACCCTA | -0.07
44 | CAGACCCC | -0.348
45 | ACCTCTGG | -0.261
46 | CTCGAAAA | 0.0312
47 | CAAAAACG | 0.0494
48 | CAACCAAG | -0.0636
49 | CGGGGGCA | -0.399
50 | CCTTAGTA | -0.129

Row | Sequence | PBM E-score
51 | CAACGACA | 0.0513
52 | CAGACCTA | -0.132
53 | AACTCCGC | 0.492
54 | ATCATGCG | -0.0362
55 | CGGAGCAC | 0.175
56 | CGCAAGGC | -0.0552
57 | ATCCTACA | -0.0809
58 | CGCGGGTC | -0.0488
59 | ATTCAAAG | 0.0234
60 | ACGGGGAG | -0.117
61 | CGTAACAG | 0.0835
62 | CACCGAAG | 0.157
63 | ATGATCCC | -0.096
64 | TGGTTGAA | 0.0452
65 | GGCTAAAC | -0.0069
66 | GATAAATA | 0.325
67 | GGATTATA | 0.0232
68 | GGGCGCAA | -0.0836
69 | AACGTCAC | -0.0497
70 | AAATTCAC | 0.161
71 | AGTTCGAG | -0.0528
72 | AGGCCCCC | -0.315
73 | AATCCCCG | 0.239
74 | ATCCGGGC | 0.127
75 | TAAGTCGA | 0.13

Row | Sequence | PBM E-score
76 | GTTCGATA | 0.159
77 | AGAGAGTG | -0.0214
78 | ACCTTGGA | -0.0763
79 | AAAGGTCC | -0.112
80 | ACGTGAGA | -0.208
81 | GCTTTTTA | 0.161
82 | ACTTATGA | 0.147
83 | CTGGATAA | 0.109
84 | CTAGTGTC | -0.0625
85 | AATTAATT | 0.206
86 | GTTCTCGA | -0.139
87 | AGGACGTG | -0.264
88 | AGTTCTAA | 0.184
89 | AGTGACTC | -0.0958
90 | ACCACGCA | -0.327
91 | CATACGCC | -0.0291
92 | AGTAAGGC | -0.00012
93 | CCGGAAGA | 0.312
94 | GAGTTGGC | -0.0198
95 | CCCCAATA | -0.158
96 | AACCGACG | -0.00778
97 | AAACCATC | 0.271
98 | GGGCCAAA | -0.0244
99 | CGTTGATA | 0.189
100 | ATTCAATC | 0.193

Row | Sequence | PBM E-score
101 | GTTCCAGA | -0.0427
102 | ACGACGCG | -0.0401
103 | ACGTACAG | -0.16
104 | GCAGCAGC | -0.307
105 | AGGAGATG | 0.0233
106 | TAGACTAA | 0.0585
107 | GCACATCA | 0.0466
108 | CACTGTGG | -0.146
109 | GAAGGTCC | 0.144
110 | ATGGTTCG | 0.107
111 | GGTCAATA | 0.115
112 | ACGTTACC | -0.0985
113 | TGGGTTAA | -0.0031
114 | CCAGGGAA | -0.379
115 | GTGTCACA | 0.00614
116 | CGATGGGA | -0.101
117 | ACACCTGG | -0.32
118 | ATTTGCCA | -0.165
119 | AGATAACT | 0.136
120 | TCTCACCA | 0.0826
121 | GCGGATCA | -0.0398
122 | CATATGCC | 0.00652
123 | AAAATTTG | 0.142
124 | GGTGCGTA | -0.157
125 | ATGGTGTA | -0.105

Row | Sequence | PBM E-score
126 | AGCGCTCC | -0.193
127 | GGAGCACA | 0.0392
128 | CATCTTGC | -0.0807
129 | ACCGCAAT | 0.1
130 | CCACAGCA | -0.141
131 | CAAAAATC | 0.125
132 | ATGCTAAA | -0.0294
133 | AGCGTAAA | 0.0681
134 | AACACGCG | 0.0022
135 | GTAACCGA | 0.144
136 | ATGAAGTG | 0.0185
137 | CTGAGAGA | -0.229
138 | ATCAGTGC | -0.0601
139 | CAGGAACG | -0.234
140 | ATGTACGA | 0.0933
141 | AAGCTATC | 0.142
142 | AAAAGCGT | 0.112
143 | GCCATGAC | -0.172
144 | GTAATTCA | 0.182
145 | ACCTCCAG | -0.0553
146 | ACGGGTAG | -0.14
147 | CGACAGGC | -0.216
148 | ATGTTCCG | 0.129
149 | AACCGGAT | 0.222
150 | CCCGCACC | -0.153

Row | Sequence | PBM E-score
151 | ACAATTAG | 0.0439
152 | GATCATCC | 0.00327
153 | AGAGTTTA | 0.27
154 | CACGTCCG | -0.0345
155 | AGTGACGA | 0.0288
156 | AGAGACAT | -0.0149
157 | CGGACGGA | 0.231
158 | GGGGTTAA | 0.129
159 | GACACTGA | 0.0506
160 | CCTTGAAC | -0.0776
161 | AAACTGGT | 0.128
162 | ACCAATCC | -0.0267
163 | GTAGCACA | -0.00356
164 | GAGTGTAC | 0.0572
165 | GGTAAGAC | -0.0931
166 | CTCAAATA | 0.0259
167 | CTGATTTA | 0.121
168 | AGCTGGAT | -0.0844
169 | CTTATACA | 0.0738
170 | ACAAGGCC | -0.275
171 | ATCATGGG | -0.181
172 | AGCGTACA | -0.175
